The target of test [1] is T1, EYFP-WWOX (UniProt Q9NZC7).
T1 sequence: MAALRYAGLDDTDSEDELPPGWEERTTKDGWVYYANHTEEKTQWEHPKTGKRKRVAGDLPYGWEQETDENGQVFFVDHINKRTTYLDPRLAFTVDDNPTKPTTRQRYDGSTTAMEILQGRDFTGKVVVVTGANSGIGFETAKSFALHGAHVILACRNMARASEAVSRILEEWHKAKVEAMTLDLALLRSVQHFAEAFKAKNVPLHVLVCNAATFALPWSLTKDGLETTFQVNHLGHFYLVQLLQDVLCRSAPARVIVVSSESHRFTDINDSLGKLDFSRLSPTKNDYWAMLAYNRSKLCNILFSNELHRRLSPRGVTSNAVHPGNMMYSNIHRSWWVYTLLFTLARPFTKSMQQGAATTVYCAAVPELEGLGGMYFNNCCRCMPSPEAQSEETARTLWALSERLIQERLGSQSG
The test can be described thus: FRET or BRET; time-lapse FRET microscopy of living COS7 cells co-transfected with ECFP- and EYFP-tagged constructs, in the presence of TGF-β1 (5 ng/ml). (In general: In BRET a luciferase serves as donor, and the signal depends on an acceptor being close.)

Amino acid sequences for entries named in this document (tags omitted). A change or cut given only in a name is not applied to a line headed by its entry.
UniProt O75865: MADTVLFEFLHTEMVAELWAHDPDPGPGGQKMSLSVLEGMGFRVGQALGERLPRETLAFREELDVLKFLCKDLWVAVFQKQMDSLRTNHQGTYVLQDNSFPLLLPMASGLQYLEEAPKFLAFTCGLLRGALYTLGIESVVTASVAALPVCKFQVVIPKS

The target of test [2] is T1, EYFP-WWOX. The test can be described thus: FRET or BRET; FRET microscopy of living COS7 cells co-transfected with ECFP- and EYFP-tagged constructs, without stimulation; excitation 440 nm, emission 535 nm; binding given as FRETc.
The target of test [3] is T2, C-terminal SDR domain/D3 tail of WWOX (aa 120-414), ECFP tag (UniProt Q9NZC7).
T2 sequence: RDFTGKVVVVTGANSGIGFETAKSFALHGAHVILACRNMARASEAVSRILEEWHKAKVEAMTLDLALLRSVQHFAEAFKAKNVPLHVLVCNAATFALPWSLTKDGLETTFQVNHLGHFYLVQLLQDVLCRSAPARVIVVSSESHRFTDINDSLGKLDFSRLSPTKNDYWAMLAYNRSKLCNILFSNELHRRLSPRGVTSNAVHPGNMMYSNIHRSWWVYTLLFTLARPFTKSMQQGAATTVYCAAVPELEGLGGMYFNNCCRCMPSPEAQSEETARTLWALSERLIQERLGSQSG
The test can be described thus: FRET or BRET; time-lapse FRET microscopy of living COS7 cells co-transfected with ECFP- and EYFP-tagged constructs, in the presence of TGF-β1 (5 ng/ml).

Test [4] concerns the target T3, WW domains of WWOX (aa 1-95), ECFP tag (UniProt Q9NZC7).
T3 sequence: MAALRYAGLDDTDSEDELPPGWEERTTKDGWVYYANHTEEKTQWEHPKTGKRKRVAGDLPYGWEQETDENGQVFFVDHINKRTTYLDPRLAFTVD
The description is as above.

Test [5] has as its target T2, C-terminal SDR domain/D3 tail of WWOX (aa 120-414), ECFP tag. Kind of test: FRET or BRET; FRET microscopy of living COS7 cells co-transfected with ECFP- and EYFP-tagged constructs, without stimulation; excitation 440 nm, emission 535 nm; binding given as FRETc.
For test [6], the target named is T4, ECFP-WWOX (UniProt Q9NZC7).
T4 sequence: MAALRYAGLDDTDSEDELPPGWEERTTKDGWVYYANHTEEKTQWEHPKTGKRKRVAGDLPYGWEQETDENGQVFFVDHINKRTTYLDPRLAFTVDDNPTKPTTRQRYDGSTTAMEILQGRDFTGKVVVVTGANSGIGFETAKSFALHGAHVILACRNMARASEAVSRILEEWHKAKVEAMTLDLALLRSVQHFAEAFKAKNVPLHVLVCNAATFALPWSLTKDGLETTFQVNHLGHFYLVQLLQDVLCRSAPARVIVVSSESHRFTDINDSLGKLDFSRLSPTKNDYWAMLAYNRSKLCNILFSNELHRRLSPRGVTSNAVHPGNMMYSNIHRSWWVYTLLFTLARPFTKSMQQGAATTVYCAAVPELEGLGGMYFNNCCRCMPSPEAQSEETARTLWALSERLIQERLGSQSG
The description is as above.

The target in test [7] is T3, WW domains of WWOX (aa 1-95), ECFP tag. Described as above.
Test [8] deals with T4, ECFP-WWOX. The test can be described thus: FRET or BRET; time-lapse FRET microscopy of living COS7 cells co-transfected with ECFP- and EYFP-tagged constructs, in the presence of TGF-β1 (5 ng/ml).
Test [9] deals with ECFP-TPC6AΔ (human) (UniProt O75865). The test can be described thus: FRET or BRET; FRET microscopy of living COS7 cells co-transfected with ECFP- and EYFP-tagged constructs, without stimulation; excitation 440 nm, emission 535 nm; binding given as FRETc.

Results are given in words; binding and its absence hold for the method and conditions named. Binding seen in cells or lysates may run through a third protein. Some results given as binding are weak or reduced against the parent protein; the word gives no strength. Where a sequence is shown, tags or fusion partners need not be part of it.

Take “ECFP-TPC6AΔ (from UniProt O75865-1 1-159)”: the results for the binding entry in [1] and in test [2] were “binds” and “binds weakly”, respectively.
Turning to “EYFP-TPC6AΔ (from UniProt O75865-1 1-159)”, the binding result in [3] is listed as “binds”; in test [4] it was “binds”; in [5], “binds”; in test [6], “binds”; in test [7], “no binding (condition: without TGF-β1 stimulation)”.
On to “EYFP-TPC6AΔ(S35G) (from UniProt O75865-1 1-159)”, for which, in test [8], the binding entry is listed as “binds”.

B1: EYFP-TIAF1 (protein, UniProt O95411 1-115)
chain: MSSPSSPFREQSFLCAAGDAGEESRVQVLKNEVRRGSPVLLGWVEQAYADKCVCGPSAPPAPTPPSLSQRVMCNDLFKVNPFQLQQFRADPSTASLLLCPGGLDHKLNLRGKAWG
For B1, in [9], the binding result is listed as “binds”.

The values above are taken from publication PMC4981022.
